PubChem BioAssay AID1508649 (National Center for Advancing Translational Sciences (NCATS), 2021)
In all, about 43,000 compounds went through this assay and about 830 (1.9%) were called active. This list was built around the results that the source calls inconclusive (neither active nor inactive); the mix of calls is not that of the screen. Rule for the calls: active = clear falling dose curves in both reporters; inconclusive = both reporters move, but less clearly or upward; inactive = either reporter flat; the % is the NLuc reporter signal. Potencies of inconclusive entries are left out as doubtful fits.

Assay: Cell-based coincidence reporter assay to measure PMP22 gene transcription in S16 Pmp22-F2sN cells - Primary screen
Conditions: S16 Pmp22-F2sN Schwann cells (luciferase reporters placed in the Pmp22 gene), FLuc/NLuc coincidence luminescence, 24 h; measured here: NLuc reporter readout, at 57.5 µM (top of the series)
How it was run: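 Rat S16 Pmp22-F2sN cells, 500-1,000/well in phenol red-free DMEM + 10% FBS, compound-treated 24 h (37C, 5% CO2). Luminescence: FLuc read, Stop&Glo added, NLuc read.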
Potency is the fitted concentration of half-maximal effect; tags give direction and shape of the fitted curve.

Structure (SMILES)	Potency
CN(C)c1ccc(Nc2nc3ccccc3n3nnnc23)cc1	active: 13.5 µM
COc1ccccc1-c1nn2c(=O)cc(CN3CCN(C(=O)/C=C/c4ccccc4)CC3)nc2s1	inconclusive [phenotype inactive, single point]
CC(C)(C)CC(C)(C)c1ccc(OCC(=O)Nc2ccc(S(=O)(=O)Nc3ncccn3)cc2)cc1	inconclusive [phenotype inactive, partial curve, poor fit]
Cc1cc(C(=O)C(=O)Nc2nncs2)c(C)n1-c1ccc(Cl)cc1	inconclusive [phenotype inactive, partial curve, poor fit]
Cn1c(=O)c2c(ncn2Cc2ccc(Cl)cc2)n(C)c1=O	inconclusive [phenotype inactive, partial curve, poor fit]
CC(=O)c1ccc(NC(=O)Cn2ncc3c4ccccc4n(Cc4ccccc4)c3c2=O)cc1	inactive
Cc1cc(C)c(NS(=O)(=O)c2ccc(-c3coc(C)n3)cc2)c(C)c1	inactive
CCOC(=O)c1c(C)[nH]c(C)c1S(=O)(=O)NCC(=O)NCc1ccccc1C	inconclusive [phenotype inactive, single point]
Cc1ccc2onc(CNC(=O)N3CCN(c4cccc(C(F)(F)F)c4)CC3)c2c1	inactive
COCC(=O)Nc1c(C(=O)Nc2ccc(C)cc2)oc2ccccc12	inactive
CCOc1ccc(-n2c(=O)c3c(C)c(C(=O)N(C)C)sc3n(Cc3cc(C)ccc3C)c2=O)cc1	inactive
CCc1ccc(OCC(=O)Nc2ccc3c(c2)c2ccccc2n3CC)c(Br)c1	inconclusive [phenotype inactive, single point]
CCc1c(CN2CCN(c3ccccc3F)CC2)csc1C	inconclusive [phenotype inactive, single point]
O=C(CN1C(=O)CCSc2ccc(S(=O)(=O)N3CCCC3)cc21)Nc1cccc(F)c1	inconclusive [phenotype inactive, partial curve, poor fit]
COc1ccc(Cn2c(CO)cnc2SCc2ccc(C)cc2)cc1	inactive
Cc1ccc(-c2onc(C)c2C)cc1S(=O)(=O)Nc1ccccn1	inactive
Cc1ccc(CS(=O)(=O)c2ncc(Cl)c(C(=O)Nc3nnc(C(C)C)s3)n2)cc1	active: 8.91 µM
COc1ccc(-c2nc(CS(=O)CC(=O)NCCc3ccc(Cl)cc3)c(C)o2)cc1OC (configuration not stated)	inconclusive [phenotype inactive, single point]
Cc1ccc(S(=O)(=O)Cc2nc(-c3ccc(C(=O)NCCCOC(C)C)cc3)oc2C)cc1	inactive
CNC(=O)c1c(NC(=O)/C=C/c2ccccc2)sc2c1CCC2	inconclusive [phenotype inactive, single point]
Cc1ccc(CNC(=O)c2cnc3c(-c4ccc(F)cc4)c(C)nn3c2C)o1	inactive

Structure (SMILES)	Potency
COc1ccc(NC(=O)c2nc(-c3ccc(C)cc3)n3c2CCCCC3)cc1	inconclusive [phenotype inactive, single point]
CCc1ccc2oc(-c3cc(NC(=O)c4cc(OC)c(OC)c(OC)c4)ccc3O)nc2c1	inconclusive [phenotype inactive, single point]
COc1cc(NC(=O)C2CCN(c3cnccn3)CC2)cc(OC)c1	inactive
CCN(CCCNC(=O)c1cc2c(=O)n(C)c3ccccc3c2s1)c1ccccc1	inconclusive [phenotype inactive, single point]
Cc1ccc(S(=O)(=O)C(CNC(=O)C(=O)NCCc2ccc(Cl)cc2)c2ccco2)cc1 (configuration not stated)	inactive
Cc1ccc(NS(=O)(=O)c2ccc3oc(=O)c4ncn(C)c4c3c2)cc1C	inconclusive [phenotype inactive, single point]
Cc1ccc2c(C)c(C(=O)N(Cc3ccc(N(C)C)cc3)Cc3ccco3)oc2c1C	inconclusive [phenotype inactive, single point]
O=C(Nc1ccc(Br)cc1)c1cc(S(=O)(=O)NC2CCCC2)ccc1F	inconclusive [phenotype inactive, single point]
CCc1ccc(NC(=O)c2cnn(-c3c(C)cccc3C)c2C2CCN(C(=O)OC(C)(C)C)CC2)cc1	inconclusive [phenotype inactive, single point]
COc1cccc(CNC(=O)c2sc3ncccc3c2-n2c(C)ccc2C)c1OC	inconclusive [phenotype inactive, single point]
Cc1ccc(CN2C(=O)SC(Nc3ccc(Cl)cc3)C2=O)cc1 (configuration not stated)	inconclusive [phenotype inactive, single point]
Cc1ccc(Cc2c(C)nc3nc(SCC(=O)NCCC(C)C)nn3c2C)cc1	inconclusive [phenotype inactive, single point]
O=C(Nc1ccccc1Cl)N1CCC2(CC1)Oc1ccccc1C(=O)N2Cc1ccc(F)cc1	inconclusive [phenotype inactive, single point]
COc1cc(C(=O)NCc2ccc3c(c2)CCN3C(=O)c2ccc(Cl)cc2)cc(OC)c1OC	inconclusive [phenotype inactive, single point]
COc1ccc(C2CC(=O)c3cc(-c4nc(-c5cccc([N+](=O)[O-])c5)cs4)c(=O)n(-c4cccc(C)c4)c3C2)cc1 (configuration not stated)	inconclusive [phenotype inactive, single point]
O=C(Nc1cccc(C(=O)OCc2cc(=O)n3c4c(sc3n2)CCCC4)c1)c1cccc(F)c1	inconclusive [phenotype inactive, single point]
COc1ccccc1CNC(=O)CCn1c(=O)c2ccccc2n(CC(=O)Nc2cc(Cl)ccc2C)c1=O	inconclusive [phenotype inactive, partial curve, poor fit]
CCc1nn(CC(=O)NCc2ccccc2)c(=O)c2cccn12	inactive
CCCCN(C)C(=O)CSc1c2c(nc3ccc(Cl)cc13)CCCC2	inconclusive [phenotype inactive, partial curve]
Cc1cc(C(=O)N2CCN(c3ccccc3F)CC2)c2c(C)nn(-c3ccccc3)c2n1	inactive
CCCCN(CCCC)c1ncnc2c1cnn2-c1cccc(C)c1	inconclusive [phenotype inactive, full curve, poor fit]

Structure (SMILES)	Potency
CCOc1ccc(NC(=O)c2cc3sc(Cl)cc3n2CC)cc1	active: 11.9 µM
Cc1cccc(NC(=O)CN(c2ccc(C(C)C)cc2)S(=O)(=O)c2c(C)nn(C)c2C)c1C	inactive
CCOc1ccc(S(=O)(=O)NCCc2csc(-c3ccc(Cl)cc3)n2)cc1	inconclusive [phenotype inactive, partial curve]
CCN(CC)c1nn2c(=O)c(C(=O)NCCc3ccc(C)cc3)cnc2s1	inconclusive [phenotype inactive, single point]
CCCCC1CCC(C(=O)N2CC(=O)Nc3ccc(F)cc3C2c2ccc(F)cc2)CC1 (configuration not stated)	inconclusive [phenotype inactive, single point]
CC(C)Cn1c(=O)c2ccccc2n2c(CCC(=O)N3CCN(c4cccc(Cl)c4)CC3)nnc12	inconclusive [phenotype inactive, single point]
COc1ccc(CNC(=O)c2ccc3nc(CCc4ccccc4)oc3c2)cc1OC	inconclusive [phenotype inactive, single point]
CCn1c(C(=O)N2CCC(C(=O)N3CCN(c4cc(C)ccc4C)CC3)CC2)cc2sccc21	inconclusive [phenotype inactive, single point]
CCCNC(=O)c1cnn2c(C)c(Cc3c(C)cc(C)cc3C)c(C)nc12	active: 15.8 µM
COc1cccc(C2CC(=O)Nc3cc4c(cc32)OCO4)c1OC(C)C (configuration not stated)	inconclusive [phenotype inactive, partial curve]
O=C1CC(c2nnc(Cc3ccc(F)cc3Cl)o2)CN1c1ccccc1 (configuration not stated)	inactive
Brc1cccc(-c2nnc(CN3CCN(c4ccccn4)CC3)o2)c1	inactive
CC(=O)c1ccc(NC(=O)CSc2ccc(-c3cccs3)nn2)cc1	inactive
COc1ccccc1NC(=O)c1sc2nc(C)c(C(=O)Nc3ccc(C)cc3C)c(-c3cccs3)c2c1N	inactive
CCC(C)Sc1oc(-c2ccco2)nc1S(=O)(=O)c1ccc(C)cc1 (configuration not stated)	inconclusive [phenotype inactive, single point]
O=C(C1CCCN(S(=O)(=O)c2ccc(Br)s2)C1)N1CCN(c2cccc(Cl)c2)CC1 (configuration not stated)	inconclusive [phenotype inactive, partial curve]
CCc1ccc2c(c1)NC(c1ccc(C)cc1)=NC(c1cccs1)=N2	inconclusive [phenotype inactive, single point]
Cc1cc(=O)n(CC(=O)NCc2ccc(OC(C)C)cc2)c2c1c(C)nn2-c1cccc(F)c1	inconclusive [phenotype inactive, single point]
CN(Cc1ccc(F)cc1)S(=O)(=O)c1nnc(NC(=O)c2ccccc2Cl)s1	inactive
Cc1nn(C)c2c1c(C(F)(F)F)cc(=O)n2CC(=O)N1CCCCC1C (configuration not stated)	inconclusive [phenotype inactive, single point]
